± gives the standard deviation of the averaged measurements. In all, about 33,000 sequences were measured (“E-score (dimensionless, -0.5 to 0.5)”: median about -0.046, highest 2% from about 0.36 on). This is one part of the list.
Each sequence was assayed on T1, SpTbr T-box DNA-binding domain (GST fusion) (assay: PBM E-score of 8-mer (E-score (dimensionless, -0.5 to 0.5)); Tbr is Tbrain of the sea star Patiria miniata (Pm) or the sea urchin Strongylocentrotus purpuratus (Sp); higher = stronger binding preference; most listed sequences are background and not binding sites). Settings: the construct has about 5 more residues each side.
T1 sequence: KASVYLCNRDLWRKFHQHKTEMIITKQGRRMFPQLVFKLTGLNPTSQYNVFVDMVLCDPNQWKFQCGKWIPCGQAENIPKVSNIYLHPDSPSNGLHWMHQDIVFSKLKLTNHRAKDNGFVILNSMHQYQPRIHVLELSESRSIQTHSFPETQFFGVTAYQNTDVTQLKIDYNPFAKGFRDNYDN
In short: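 Using the Universal PBM Analysis Suite, every ungapped 8-mer received an enrichment E-score averaged over duplicate arrays. Probe intensities came from double-stranded Universal Agilent oligonucleotide arrays incubated with 200 nM GST-fused Tbr T-box DNA-binding domain in PBS (pH 7.5). That protein was expressed in BL21 E. coli at 20 °C and purified by glutathione affinity chromatography.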

In order of rising “PBM E-score of 8-mer” value:
1. TCCATAAA  -0.379 ± 0.012
2. ATTTTTGA  -0.321 ± 0.043
3. CCCTATAA  -0.312 ± 0.036
4. AAGGCAGA  -0.288 ± 0.024
5. CTATGAAA  -0.276 ± 0.074
6. CTTAAGCC  -0.267 ± 0.0081
7. AATCCCAA  -0.249 ± 0.012
8. CTCGGAAC  -0.249 ± 0.021
9. ATTTGGTA  -0.247 ± 0.089
10. CAGAGCAG  -0.246 ± 0.033
11. CGGCTCAG  -0.234 ± 0.056
12. AGGGCTCG  -0.214 ± 0.036
13. ACTGTCCG  -0.213 ± 0.048
14. CGGGGCCA  -0.213 ± 0.092
15. CTCTGGTC  -0.209 ± 0.0028
16. GATTAATC  -0.199 ± 0.051
17. ACTTTGGA  -0.195 ± 0.0099
18. TATTACGA  -0.195 ± 0.13
19. AGGGCGGC  -0.186 ± 0.037
20. GGGACCAC  -0.184 ± 0.034
21. AGCGTTCC  -0.18 ± 0.023
22. TATTAATA  -0.165 ± 0.15
23. CTACTCTA  -0.157 ± 0.073
24. AAGACTAT  -0.151 ± 0.061
25. ACGGAGAT  -0.151 ± 0.0021
26. GTTCATAA  -0.15 ± 0.039
27. CTGTTCTA  -0.147 ± 0.09
28. TGCGTACA  -0.139 ± 0.0032
29. AAGATTCA  -0.128 ± 0.011
30. GCATCCAC  -0.126 ± 0.016
31. AAGAAATG  -0.121 ± 0.0069
32. AATCTACC  -0.117 ± 0.013
33. ATCGTGTA  -0.115 ± 0.094
34. ACGGCCCG  -0.114 ± 0.027
35. ATTAGACA  -0.107 ± 0.0034
36. GTCTCCAC  -0.103 ± 0.13
37. CTGGGAAC  -0.102 ± 0.011
38. CCGCTCAG  -0.1 ± 0.047
39. GCCAGAAA  -0.0922 ± 0.036
40. ACCGAATC  -0.0887 ± 0.092
41. GCATGTCC  -0.0875 ± 0.095
42. TTTCGAAA  -0.0868 ± 0.088
43. TACAACAA  -0.0816 ± 0.021
44. AATTGTAC  -0.0804 ± 0.06
45. CCATATAC  -0.0681 ± 0.00081
46. CGGGTAAA  -0.0638 ± 0.0065
47. CAATTATG  -0.0617 ± 0.022
48. AAGGGACT  -0.0603 ± 0.01
49. CTGTGGTA  -0.0602 ± 0.031
50. AGATAATC  -0.0593 ± 0.049
51. AGTATACA  -0.0524 ± 0.029
52. ATATTGAT  -0.0515 ± 0.062
53. CAGCAGTC  -0.0478 ± 0.033
54. GACTTAAA  -0.0423 ± 0.012
55. CATGATAA  -0.0381 ± 0.086
56. ACAAGAAT  -0.0345 ± 0.0061
57. ATATTATG  -0.033 ± 0.014
58. CATCCTCG  -0.0211 ± 0.019
59. AATGGTTA  -0.0209 ± 0.046
60. CAGCGATA  -0.0175 ± 0.042
61. CGATTAAA  -0.0163 ± 0.022
62. CCACGCCG  -0.016 ± 0.0063
63. ACCGAGGG  -0.00648 ± 0.08
64. CCAACTAC  -0.00223 ± 0.0022
65. CTCCTCGA  0.00467 ± 0.054
66. CGCTGAGA  0.00572 ± 0.047
67. AGGTACTG  0.00815 ± 0.16
68. ATTGATAG  0.0108 ± 0.069
69. ACTCTCTC  0.0136 ± 0.068
70. CCTCGTTC  0.0141 ± 0.013
71. CAACACGG  0.0142 ± 0.003
72. ATCAAACA  0.0199 ± 0.048
73. ACTGGCAT  0.0223 ± 0.048
74. GATCCAGA  0.0327 ± 0.026
75. ACTGTTTG  0.0503 ± 0.058
76. GATCTGAC  0.0523 ± 0.0091
77. CGATCCTC  0.0602 ± 0.054
78. ATGCGTTG  0.0618 ± 0.059
79. CCCGGGTC  0.0628 ± 0.11
80. AGCCGATG  0.0636 ± 0.0027
81. GGTTTAAC  0.0641 ± 0.023
82. ACGTACTC  0.0663 ± 0.12
83. ACGCATCT  0.0732 ± 0.04
84. AACCTTAC  0.0738 ± 0.012
85. CCCAACGC  0.0768 ± 0.033
86. CCATCGAG  0.0777 ± 0.035
87. GCGATCTA  0.0784 ± 0.078
88. CTATTGAG  0.0789 ± 0.0069
89. AAGTGGTA  0.083 ± 0.018
90. CAGCCTAA  0.0988 ± 0.034
91. ACAAGCGC  0.107 ± 0.044
92. AGCGCGGC  0.107 ± 0.057
93. ACGCATAG  0.11 ± 0.043
94. ACGCATAT  0.118 ± 0.066
95. TGTAGACA  0.118 ± 0.045
96. CAACATAC  0.125 ± 0.05
97. CAGTCGCA  0.125 ± 0.008
98. GTCTGTTA  0.129 ± 0.015
99. ACGGACAC  0.139 ± 0.027
100. GACACAGA  0.151 ± 0.031
101. AAATTAAC  0.187 ± 0.029
102. CCTCACCA  0.197 ± 0.025
103. ATATAACA  0.235 ± 0.057
104. CTGCCACC  0.247 ± 0.002
105. ACTTCACA  0.357 ± 0.02
106. ACACTTCT  0.383 ± 0.035
107. CTTCGCGC  0.407 ± 0.032
108. GAGTGCGA  0.411 ± 0.021
109. GACACCTA  0.4778 ± 0.0018
110. CACACCTA  0.4806 ± 0.0011

— the supplement of paper PMC4166925
